Results on 78 molecules are retold here after the supplement of paper PMC10670038.

Each structure is given as a SMILES string. “And” between values parts separate entries of the source, which are not always exact repeats. Equal values may be shown once. Where a name gives a salt, the structure may show the parent alone. ± gives the standard deviation of the averaged measurements. Whole data set: some 2,000 compounds, median “relative cell viability vs DMSO, compound + 0.2 uM CuET” near 1, cut for the lowest 2% near 0.25. This is one part of the list.

The test system of this test is TE10. The test can be described thus: relative cell viability vs DMSO, compound + 0.2 uM CuET (fraction); TE10 is an esophageal squamous carcinoma line; higher = less cytotoxic. The settings on record: 2 µM; co-treatment: CuET (bis(diethyldithiocarbamate)copper) 0.2 uM; 48 h. Here is the method:
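TE10 ESCC cells (1,000/well, 384-well plates) were treated with Selleck bioactive library compounds at 2 uM combined with 0.2 uM CuET (copper diethyldithiocarbamate) for 48 h. Viability was read by CellTiter-Glo and expressed relative to DMSO wells. Two technical replicates (A, B).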
`CC1(C)CCC(CN2CCN(c3ccc(C(=O)NS(=O)(=O)c4ccc(NCC5CCOCC5)c([N+](=O)[O-])c4)c(Oc4cnc5[nH]ccc5c4)c3)CC2)=C(c2ccc(Cl)cc2)C1`: the relative cell viability came out at 0.959 ± 0.078. Regarding `CCCCCCCCCCC[C@@H](C[C@@H]1OC(=O)[C@H]1CCCCCC)OC(=O)[C@H](CC(C)C)NC=O` [Orlistat], the relative cell viability turned out to be 0.874 ± 0.047. In the case of `Cc1ccc(NC(=O)c2ccc(CN3CC[C@H](N(C)C)C3)c(C(F)(F)F)c2)cc1Nc1nccc(-c2cncnc2)n1` [Bafetinib (INNO-406)] it was 0.99 ± 0.093; in that of `COc1cc(Nc2ncc(F)c(Nc3ccc4c(n3)NC(=O)C(C)(C)O4)n2)cc(OC)c1OC`, 1.01 ± 0.019. With `COc1cc(Nc2ncc(F)c(Nc3ccc4c(n3)NC(=O)C(C)(C)O4)n2)cc(OC)c1OC` [R406 (free base)], the relative cell viability was 0.758 ± 0.13. The same measure for `CC(C)(Oc1ccc(Cl)cc1)C(=O)O` [Clofibric Acid]: 1.1 ± 0.1; for `O=C(O)CCC(=O)Nc1ccc(Br)cn1` [Bikinin]: 1.06 ± 0.076; for `COc1ccc(C(=O)Nc2sc3c(c2C(N)=O)CCCC3)cc1OC`: 0.979 ± 0.1. Take `O=NO` [Sodium Nitrite]: the relative cell viability worked out at 1.14 ± 0.13. The same measure for `CCC[C@H](Nc1nc(-c2ccc(NC(=O)NCC)c(OC)c2)ncc1C)c1cccnc1` [CYT997 (Lexibulin)]: 0.673 ± 0.047.

As to `COC1C(O)CC(=O)OC(C)CC=CC=CC(OC2CCC(N(C)C)C(C)O2)C(C)CC(CC=O)C1OC1OC(C)C(OC2CC(C)(O)C(O)C(C)O2)C(N(C)C)C1O` (stereo not drawn) [Spiramycin], the relative cell viability stood at 1.11 ± 0.0071. `COc1cc2ncc(-c3ccccc3)nc2cc1OC` [Tyrphostin AG 1296]: the relative cell viability was determined as 0.947 ± 0.14. Turning to `CC1CCc2c(N3CCC(O)CC3)c(F)cc3c(=O)c(C(=O)O)cn1c23` (stereo not drawn) [Nadifloxacin], the relative cell viability was 1.28 ± 0.3. In the case of `Cn1ncc(Cl)c1-c1cc(C(=O)N[C@H](CN)Cc2cccc(F)c2)sc1Cl`, the relative cell viability was determined as 0.76 ± 0.064. In the case of `NC12CC3CC(CC(C3)C1)C2` [Amantadine HCl], the relative cell viability was 1.05 ± 0.029. On to `O=c1c2ccccc2oc2ccccc12` [Xanthone], for which the relative cell viability worked out at 1.1 ± 0.18. The same measure for `CC(C)(C)C[C@@H]1N[C@@H](C(=O)N[C@H]2CC[C@H](O)CC2)[C@H](c2cccc(Cl)c2F)[C@]12C(=O)Nc1cc(Cl)ccc12`: 0.914 ± 0.06; for `CO[C@H]1O[C@@H]2O[C@@]3(C)CC[C@H]4[C@H](C)CC[C@@H]([C@H]1C)[C@@]24OO3` [Artemether]: 1.045 ± 0.0017. The same measure for `Cc1cc(=O)n(-c2ccccc2)n1C` [Antipyrine]: 1.01 ± 0.13; for `Clc1ccc(COC(Cn2ccnc2)c2ccc(Cl)cc2Cl)c(Cl)c1` (stereo not drawn) [Miconazole]: 0.811 ± 0.03; for `Clc1ccc(COC(Cn2ccnc2)c2ccc(Cl)cc2Cl)c(Cl)c1` (stereo not drawn) [Miconazole Nitrate]: 0.874 ± 0.038. The same measure for `CCCN(CCc1cccs1)[C@H]1CCc2c(O)cccc2C1` [Rotigotine]: 1.05 ± 0.082; for `CCN(CCO)CCCOc1ccc2c(Nc3cc(CC(=O)Nc4cccc(F)c4)[nH]n3)ncnc2c1` [Barasertib (AZD1152-HQPA)]: 1.25 ± 0.26.

For the molecule `C=CC(=O)N1CCC(Oc2cc3c(Nc4ccc(Cl)c(Cl)c4F)ncnc3cc2OC)CC1` [Poziotinib (HM781-36B)], the relative cell viability was determined as 1.246 ± 0.0016. Take `CN1CCN(C2=Nc3cc(Cl)ccc3Nc3ccccc32)CC1` [Clozapine]: the relative cell viability was 1.06 ± 0.055. The same measure for `CO[C@@H](C(=O)N1Cc2[nH]nc(NC(=O)c3ccc(N4CCN(C)CC4)cc3)c2C1)c1ccccc1`: 0.986 ± 0.056. In the case of `Cc1c(Cc2ccc3ccccc3n2)c2cc(F)ccc2n1CC(=O)O` it was 1.14 ± 0.16. As for `C[C@@H]1[C@H](O)[C@@H](C)/C=C/C=C/C=C/C=C/C=C/C=C/C=C/[C@H](O[C@@H]2O[C@H](C)[C@@H](O)[C@H](N)[C@@H]2O)C[C@@H]2O[C@](O)(C[C@@H](O)C[C@@H](O)[C@H](O)CC[C@@H](O)C[C@@H](O)CC(=O)O[C@H]1C)C[C@H](O)[C@H]2C(=O)O` [Amphotericin B], the relative cell viability was found to be 1.13 ± 0.11. Consider `CC(C)N(CCCNC(=O)Nc1ccc(C(C)(C)C)cc1)C[C@H]1O[C@@H](n2ccc3c(N)ncnc32)[C@H](O)[C@@H]1O`, for which the relative cell viability was found to be 1.02 ± 0.1. In the case of `CCS(=O)(=O)Nc1ccc2[nH]c(O)c(C(=Nc3ccc(CN4CCCCC4)cc3)c3ccccc3)c2c1` [Hesperadin] it was 0.5395 ± 0.0028.

As for `C[C@]12CC[C@@H]3c4ccc(O)cc4CC[C@H]3[C@@H]1CC[C@@H]2OC(=O)CCC1CCCC1` [Estradiol Cypionate], the relative cell viability was found to be 0.938 ± 0.085.

With `Cc1cc(Nc2ccc(NC(=O)c3ccc(Nc4ccnc5ccccc45)cc3)cc2)nc(N)n1`, the relative cell viability amounted to 0.698 ± 0.00091. In the case of `CNC(CC(=O)O)C(=O)O` [NMDA (N-Methyl-D-aspartic acid)] it was 1.06 ± 0.04; in that of `Nc1ncn([C@H]2C[C@H](O)[C@@H](CO)O2)c(=O)n1` [Decitabine], 1.44 ± 0.075; in that of `O=C(Cc1ccc(-c2ccc(OCCN3CCOCC3)cc2)cn1)NCc1ccccc1`, 0.827 ± 0.037. In the case of `O=C(NOCCO)c1ccc2cncn2c1Nc1ccc(I)cc1F` it was 0.895 ± 0.033. Take `CCOc1cc(C(=O)N2CCC(N3CCN(C)CC3)CC2)ccc1Nc1ncc2c(n1)N(C1CCCC1)c1ccccc1C(=O)N2C`: the relative cell viability is 0.638 ± 0.066. The same measure for `O=c1cc(-c2ccc(O)c(O)c2)oc2cc(O)cc(O)c12` [Luteolin]: 0.997 ± 0.025. The same measure for `CC(C)/N=c1\cc2n(-c3ccc(Cl)cc3)c3ccccc3nc-2cc1Nc1ccc(Cl)cc1` [Clofazimine]: 0.758 ± 0.058; for `O=C1Cc2cc(CCN3CCN(c4nsc5ccccc45)CC3)c(Cl)cc2N1` [Ziprasidone HCl]: 1.542 ± 0.0026.

In the case of `COC(=O)CCc1ccc(OCC(O)CNC(C)C)cc1` (stereo not drawn) [Esmolol HCl], the relative cell viability came to 1.1 ± 0.094.

`COc1cc(C(=O)NC2CCN(C)CC2)ccc1Nc1ncc2c(n1)N(C1CCCC1)CC(F)(F)C(=O)N2C`: the relative cell viability is 0.779 ± 0.0097.

`O=C(NCc1cccc(O)c1)Nc1nc(-c2ccncc2)cs1`: the relative cell viability was determined as 1.11 ± 0.063. `CN1C(C(=O)Nc2ccccn2)=C(O)c2ccccc2S1(=O)=O` [Piroxicam]: the relative cell viability amounted to 1.02 ± 0.064.

Take `COc1c(C)c2c(c(O)c1C/C=C(\C)CCC(=O)OCCN1CCOCC1)C(=O)OC2` [Mycophenolate Mofetil]: the relative cell viability is 1.01 ± 0.074. The same measure for `NCCS` [Cysteamine HCl]: 1.19 ± 0.13; for `COCCOC(=O)C1=C(C)NC(C)=C(C(=O)OC(C)C)C1c1cccc([N+](=O)[O-])c1` (stereo not drawn) [Nimodipine]: 0.99622 ± 0.00012. As for `O=C(O)c1ccc(-n2nc(-c3ccccc3O)nc2-c2ccccc2O)cc1` [Deferasirox], the relative cell viability stood at 0.87 ± 0.041. The same measure for `C[C@H]1COC2(CCN(c3nc(=O)c4cc(C(F)(F)F)cc([N+](=O)[O-])c4s3)CC2)O1` (racemic) [BTZ043 Racemate]: 1.02 ± 0.019; for `CC1(C)[C@@H](O)CC[C@]2(C)[C@H]3C(=O)C=C4[C@@H]5C[C@@](C)(C(=O)O)CC[C@]5(C)CC[C@@]4(C)[C@]3(C)CC[C@@H]12` [Enoxolone]: 1.12 ± 0.037.

As to `CC1(C)CC(=O)c2c(C(F)(F)F)nn(-c3ccc(C(N)=O)c(N[C@H]4CC[C@H](OC(=O)CN)CC4)c3)c2C1`, the relative cell viability stood at 0.804 ± 0.018. In the case of `COc1cc2c(cc1OC)[C@@H]1Cc3ccc(OC)c(OC)c3CN1CC2` [Rotundine] it was 1.13 ± 0.047; in that of `CN1CCN(Cc2ccc(NC(=O)Nc3ccc(Oc4cc(NC(=O)C5CC5)ncn4)cc3)cc2C(F)(F)F)CC1`, 0.7858 ± 0.0025. In the case of `O=C(CCCN1CCC(O)(c2ccc(Cl)cc2)CC1)c1ccc(F)cc1` [Haloperidol], the relative cell viability is 1.08 ± 0.08. In the case of `Cc1ccc(C)c(OCCCC(C)(C)C(=O)O)c1` [Gemfibrozil] it was 1.04 ± 0.059.

As to `O=C(O)C[C@H](O)C[C@H](O)/C=C/c1c(C2CC2)nc2ccccc2c1-c1ccc(F)cc1` [Pitavastatin Calcium], the relative cell viability was 0.8 ± 0.035. The same measure for `Cc1ccc(Sc2ccccc2N2CCNCC2)c(C)c1`: 0.934 ± 0.039.

With `CN1CCC(CNc2ccc3ncc(-c4cccc(OC(F)(F)F)c4)n3n2)CC1` [SGI-1776 free base], the relative cell viability is 0.9705 ± 0.006. In the case of `NCC(=O)CCC(=O)O` [5-Aminolevulinic acid HCl] it was 0.962 ± 0.0066; in that of `C[C@H](NC(=O)CCc1nc2ccccc2c(=O)[nH]1)c1ccccc1`, 1.11 ± 0.14. The same measure for `CC(C[N+](C)(C)C)OC(N)=O` (stereo not drawn) [Bethanechol chloride]: 1.06 ± 0.21. In the case of `COc1ccc(C[C@H](NC(=O)[C@H](C)NC(=O)CN2CCOCC2)C(=O)N[C@@H](Cc2ccccc2)C(=O)[C@@]2(C)CO2)cc1`, the relative cell viability turned out to be 0.198 ± 0.0095. As to `Cc1ccc2nc(NCCN)c3ncc(C)n3c2c1`, the relative cell viability stood at 1.02 ± 0.043.

`Cc1c(NC(=O)OC[C@@H]2COCCN2)cn2ncnc(Nc3ccc4c(cnn4Cc4cccc(F)c4)c3)c12`: the relative cell viability was found to be 1.17 ± 0.1.

In the case of `CC(=O)c1cc([N+](=O)[O-])c(Sc2ccc(F)cc2F)s1`, the relative cell viability came out at 0.566 ± 0.046. The same measure for `COc1ccc([C@@H]2Sc3ccccc3N(CCN(C)C)C(=O)[C@@H]2OC(C)=O)cc1` [Diltiazem HCl]: 1.13 ± 0.044; for `Cc1cn([C@H]2C[C@H](N=[N+]=[N-])[C@@H](CO)O2)c(=O)[nH]c1=O` [Zidovudine]: 1.12 ± 0.085; for `C=CCc1ccc(O)c(-c2cc(CC=C)ccc2O)c1` [Magnolol]: 1.02 ± 0.057. In the case of `NS(=O)(=O)Cc1noc2ccccc12` [Zonisamide] it was 1.24 ± 0.04; in that of `Cc1cnc(-c2cnc(NCCNc3ccc(C#N)cn3)nc2-c2ccc(Cl)cc2Cl)[nH]1`, 1.12 and 1.36; in that of `CCCNC(C)C(=O)Nc1c(C)csc1C(=O)OC` (stereo not drawn) [Articaine HCl], 1.13 ± 0.016. In the case of `CNCc1ccc(-c2[nH]c3cc(F)cc4c3c2CCNC4=O)cc1` it was 1.3 ± 0.098; in that of `CC(=O)C1=C(O)C=C2Oc3c(C(C)=O)c(O)c(C)c(O)c3C2(C)C1=O` (single isomer, unassigned; (+)) [(+)-Usniacin], 1.11 ± 0.018.

`CCNC(=O)c1noc(-c2cc(C(C)C)c(O)cc2O)c1-c1ccc(CN2CCOCC2)cc1`: the relative cell viability was found to be 0.626 ± 0.052. Turning to `O=C(O)c1cc2cccc([N+](=O)[O-])c2[nH]1`, the relative cell viability was 1.07 ± 0.012. As for `COc1ccc(CCc2nc3cc(-c4c(C)noc4C)ccc3n2C[C@H](C)N2CCOCC2)cc1Cl`, the relative cell viability stood at 0.842 ± 0.032. In the case of `Cc1nc2ccc(NC(=O)Nc3ccnc4cccnc34)cc2o1` it was 1.17 ± 0.028; in that of `Oc1nc(-c2ccc(C(F)(F)F)cc2)nc2c1CSCC2`, 1.28 ± 0.055.
